By IC50 is meant the dose at which the fit gives 50% viability; fits outside the tested doses are given as limits. AUC, from the same fit, is the share of area under the viability curve across the 256-fold dose range: 1 means no effect, lower means more sensitive. An inferred top dose is not printed in the source and was worked back from the curve model.
Compound: C=CC(=O)Nc1cccc(Nc2nc(NC3CCC(N(C)C)CC3)nc3c2ncn3C(C)C)c1 [WZ3105]
Assay: Viability of human cancer cell lines after 72 h of drug (GDSC screen)
Settings: top dose inferred
Method: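 Human cancer cell lines in 384-well plates, medium with 10% serum, drug for 72 h over a 256-fold dose range (nine 2-fold or five 4-fold steps up to the top dose). Adherent lines were fixed and stained with the nucleic acid dye Syto60, suspension lines read with resazurin; signal relative to control wells, capped at 0 and 100%. One two-parameter sigmoid per drug and line, fitted in a mixed model over all curves with the slope shared within a line.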

Row | Cell Line | AUC | IC50 [nM]
1 | NB69 (neuroblastoma, adherent, top dose 1.28 µM) | 0.888 | 1150
2 | NB(TU)1-10 (neuroblastoma, adherent, top dose 1.28 µM) | 0.982 | > 1280
3 | NB-4 (acute myeloid leukaemia, suspension, top dose 1.28 µM) | 0.35 | 33.4
4 | NCC021 (kidney, adherent, top dose 1.28 µM) | 0.985 | > 1280
5 | NCI-H23 (lung adenocarcinoma, adherent, top dose 1.28 µM) | 0.943 | > 1280
6 | NCI-H28 (mesothelioma, adherent, top dose 1.28 µM) | 0.977 | > 1280
7 | NCI-H64 (small cell lung carcinoma, suspension, top dose 1.28 µM) | 0.687 | 229
8 | NCI-H69 (small cell lung carcinoma, suspension, top dose 1.28 µM) | 0.65 | 219
9 | NCI-H82 (small cell lung carcinoma, suspension, top dose 1.28 µM) | 0.829 | 741
10 | NCI-H187 (small cell lung carcinoma, suspension, top dose 1.28 µM) | 0.737 | 407
11 | NCI-H196 (small cell lung carcinoma, adherent, top dose 1.28 µM) | 0.829 | 845
12 | NCI-H209 (small cell lung carcinoma, suspension, top dose 1.28 µM) | 0.686 | 277
13 | NCI-H211 (small cell lung carcinoma, adherent, top dose 1.28 µM) | 0.543 | 104
14 | NCI-H226 (lung squamous cell carcinoma, adherent, top dose 1.28 µM) | 0.934 | > 1280
15 | NCI-H292 (lung adenocarcinoma, adherent, top dose 1.28 µM) | 0.979 | > 1280
16 | NCI-H322M (lung adenocarcinoma, suspension, top dose 1.28 µM) | 0.892 | > 1280
17 | NCI-H345 (small cell lung carcinoma, suspension, top dose 1.28 µM) | 0.911 | > 1280
18 | NCI-H358 (lung adenocarcinoma, adherent, top dose 1.28 µM) | 0.725 | 379
19 | NCI-H441 (lung adenocarcinoma, adherent, top dose 1.28 µM) | 0.962 | > 1280
20 | NCI-H446 (small cell lung carcinoma, semi-adherent, top dose 1.28 µM) | 0.52 | 91
21 | NCI-H460 (large cell lung carcinoma, adherent, top dose 1.28 µM) | 0.989 | > 1280
22 | NCI-H510A (small cell lung carcinoma, semi-adherent, top dose 1.28 µM) | 0.797 | 546
23 | NCI-H520 (lung squamous cell carcinoma, adherent, top dose 1.28 µM) | 0.502 | 81
24 | NCI-H522 (lung adenocarcinoma, adherent, top dose 1.28 µM) | 0.691 | 306
25 | NCI-H524 (small cell lung carcinoma, suspension, top dose 1.28 µM) | 0.686 | 249
26 | NCI-H526 (small cell lung carcinoma, suspension, top dose 1.28 µM) | 0.553 | 111
27 | NCI-H596 (lung adenocarcinoma, adherent, top dose 1.28 µM) | 0.805 | 884
28 | NCI-H630 (large intestine, adherent, top dose 10.24 µM) | 0.957 | > 10200
29 | NCI-H647 (non-small cell lung carcinoma, adherent, top dose 1.28 µM) | 0.677 | 257
